Sequences and labels used below:
T1: UNK ZnF1-3 (human, UniProt Q9C0B0 31-174)
T1 sequence: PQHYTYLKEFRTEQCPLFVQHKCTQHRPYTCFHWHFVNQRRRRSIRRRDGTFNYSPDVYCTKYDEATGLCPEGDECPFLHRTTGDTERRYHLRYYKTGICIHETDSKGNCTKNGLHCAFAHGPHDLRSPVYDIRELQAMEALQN

B1: chr16:32092491:32092492:-_ENSMUSG00000023791_ENSMUST00000096109|mus_mus|FALSE|FALSE (ssRNA)
RNA: GGGAGUUCUACAGUCCGACGAUCUAAGUUCCUUUCUCGUAGUGAAGCCAACUCAUAGGGAUCCACAAAGAGUCCUGGUGGAAUGUAAUGCUUAAUUAGGAGCCGGCAGGUCUGUAGGUCCUCAAUGCUCUCUCCAAAUUUCACCAACAGAGGAUUGAGCAUCA
B2: 7962896_7963016_1207_3pUTR_ENSG00000125827_ENST00000246024|human|control|control (ssRNA)
RNA: GGGAGUUCUACAGUCCGACGAUCUCUACAGUCCCUUGUCAGCAUGCUGACUUUUACGCUGCCUCAAGGAGUCUUCCACCACCUCUGUGUCAGCUGGGCAGGGUUGCUCAGAGAUGCCUUCUUCAGCCUCCUCAGGCUCUACUUCAACAGAGGAUUGAGCAUCA
B3: 70314851_70314971_327_CDS_ENSG00000169564_ENST00000303577|human|control|control (ssRNA)
RNA: GGGAGUUCUACAGUCCGACGAUCUUUCUUCCCAAUGAUGCUUCCUACUUCCUUUCCGUGCAUAAGAAGCCGAAUGGUGAGAGUCACAUUUAGUCCACUUUCAGUCACACCGGCAUCCAUGGCGAGCGGCGGGCGGCGUUCGGGCAACAGAGGAUUGAGCAUCA
B4: chr7:90019433:90019434:+_ENSMUSG00000057706_ENSMUST00000082237|mus_mus|motif|central (ssRNA)
RNA: GGGAGUUCUACAGUCCGACGAUCAAUAAUACAGUGUUCUUUGCCAUAAGGCCAUACUAAAAAUAAAAAGAUUUAACCCAGCGGCAAAAAAGUUCACUGAACUUAAAUUAAAAUACUUGUAAACAUCUUUGCAAUAUGAAAUAUCAACAGAGGAUUGAGCAUCA
B5: chr1:163112212:163112213:-_ENSG00000143248_ENST00000313961|hu_hu|hu_hu_hu_mus_False|28_58 (ssRNA)
RNA: GGGAGUUCUACAGUCCGACGAUCUUUUAUUAUCAGUAAGAGUGAGUUACAUACUAGGCAAAGUAUUGGAUACAAUAUUCUAAAGAUAAACACUAUUGGUCCAGAAUUUAAAAUAUAAUGAGCGAAGUGCUGGCACAGGACUUACAACAGAGGAUUGAGCAUCA
B6: chr7:73609574:73609575:+_ENSG00000106682_ENST00000353999|hu_hu|FALSE|FALSE (ssRNA)
RNA: GGGAGUUCUACAGUCCGACGAUCUUGCUCCUUUUGAACGACUUCCUCUCUAGGCCUGGCACCCCCGAAGAUAGCAGAGUUGGGAUUGGCUACUUGAUUGAGGGGCGUCGCGACUGUUCGAGGUUUAAGCUGGAGUCGUGGUCUCAACAGAGGAUUGAGCAUCA
B7: chr19:24183184:24183185:-_ENSMUSG00000024812_ENSMUST00000099558|mus_mus|FALSE|FALSE (ssRNA)
RNA: GGGAGUUCUACAGUCCGACGAUCUGUGGCUGUAAAAAGAUGAGAACAGGUCUUUUUGAGCUUGUUGGCUUGAUCAAAUAACUUGCGAGAACUUUUAUUGGAUGUUGGACUCAACCUCUGCCUUAUGGUUUUAACACCUUGUCUCAACAGAGGAUUGAGCAUCA
B8: 27472817_27473668_6071_CDS_ENSG00000077235_ENST00000561623|human|control|control (ssRNA)
RNA: GGGAGUUCUACAGUCCGACGAUCGAAGAGCGAGACAGGCCUUGGCUUUCUCAGCCAGCGCUUCCGGAUGCAGCCGAGGGACUCCAGGCCCUGGAGCAACUCCAGCACGGCGACGGGCUGCAGGACCCCCUGGUAGUGGCGCAGCAACAGAGGAUUGAGCAUCA
B9: chr16:53361121:53361122:+_ENSG00000177200_ENST00000398510|hu_mus|FALSE|FALSE (ssRNA)
RNA: GGGAGUUCUACAGUCCGACGAUCGAGGCCUGAAACAAGGGGUAGACCACAAGGCAACACCAGCUAUAACUCUCUCAGGAACUACCAACACGUACUGGGAUAGCCUUUCAGCUGCAGCUUGAGUAAGUGGGACUGCAUUGACUUCAACAGAGGAUUGAGCAUCA
B10: 88117509_88122337_1104_CDS_ENSMUSG00000001416_ENSMUST00000001452|mouse|control|control (ssRNA)
RNA: GGGAGUUCUACAGUCCGACGAUCGCCUGCCCCUGUACCAACAUCAUCUUCUCUCAGUUCCUCAGGUCGGCUGACUAUCCGUGCCCCACAGGCUCUAGCAAUGCGAUUAUUGUCUGUUUUCCGGACUCUACGAAUGGCUGUGACCAACAGAGGAUUGAGCAUCA
B11: chr16:94690093:94690094:+_ENSMUSG00000040785_ENSMUST00000117648|mus_hu|mus_mus_mus_hu_True|28_88 (ssRNA)
RNA: GGGAGUUCUACAGUCCGACGAUCGGGCUGGGAUGACGGACACACAGAUCUUCCCAGAGGGGGAAAAAGUCUUAGUCGAUACUAAUUAAAAAGUGUUAAUGAUUUUUAUUACCAAAAUUACAUCUAUAAAAGAUGAAAAGCAAACAACAGAGGAUUGAGCAUCA
B12: chr5:145543945:145543946:-_ENSG00000133706_ENST00000545646|hu_hu|hu_hu_hu_mus_True|8_18 (ssRNA)
RNA: GGGAGUUCUACAGUCCGACGAUCCUGAACGGCCAGUGGUGGGAAAUAAUCAAGCCAGUGCUCUGCUUCAGAAAACUUCACUAUGUCGUCAUCAGAGAGCCCAAGGGAUUUCAUAAUGCCCCACUGGUAUUUAGAAGAUCCUGCCAACAGAGGAUUGAGCAUCA
B13: chr2:114697599:114697600:+_ENSG00000115091_ENST00000536059|hu_hu|FALSE|FALSE (ssRNA)
RNA: GGGAGUUCUACAGUCCGACGAUCGGAUUGUUCUGGAGGGAUUCCUACUUCUCGGUCUCUCAGCAGUUGCUGAAUAAAAUAUGUUAUAUCUCGUCCUGCGAUUGGAAUGUGUUUAAUACAGCUGCCAAUCACAUACCCUUCAGCCAACAGAGGAUUGAGCAUCA
B14: 126699911_126700031_156_5pUTR_ENSMUSG00000074657_ENSMUST00000099172|mouse|control|control (ssRNA)
RNA: GGGAGUUCUACAGUCCGACGAUCCAAAGCACCUUGAUGCUGCAUUCGUUGUUAGUCUCCGCCAUGGUGGUCGACGACGACGAGGGGCUGGGAGCGUCUCCGACUGCAAGGGUAGCGUGUACUCCGGAGGAAGGGGACGCUGGGCAACAGAGGAUUGAGCAUCA
B15: chr11:4127340:4127341:+_ENSG00000167325_ENST00000300738|hu_mus|hu_hu_hu_mus_False|68_78 (ssRNA)
RNA: GGGAGUUCUACAGUCCGACGAUCGGCAUAGUCAGGGUGCUUCGUGGUCAAGGUCGCAGCUGUUUCAGCAGCCAAAGUGUCCAGUUCCACUGUGGUGACCCCACUAUAUAGGCCUUGGAUUACUUUCAUGGUGAUCUGAGCAGGCAACAGAGGAUUGAGCAUCA
B16: chr14:89307221:89307222:+_ENSG00000165533_ENST00000346301|hu_mus|hu_hu_hu_mus_False|38_108 (ssRNA)
RNA: GGGAGUUCUACAGUCCGACGAUCUCCUGUCUGAUUAGUGCCAGGGAGCUUCAAAGAUGUGCCAGGGCGUGGGACCUGAGCAAUAGCAUUUUCAUCCAGCAUCAUUUCAGCAAUUCCUUCCUGGUCCACAUCAAUUUCAUCUAUCAACAGAGGAUUGAGCAUCA
B17: chr15:52101961:52101962:+_ENSG00000128872_ENST00000249700|hu_hu|motif|central (ssRNA)
RNA: GGGAGUUCUACAGUCCGACGAUCUAUUUUCCUAUUCACUUGUUUUAUUGCUACUAGGCAACUCAGGAACACUCAGCGGCGGAACAAAUUCUGGAAUUUGUUUAGUAACAAAUUACAGAGAAAAGAGGAAAAAAAAGACAAUGACAACAGAGGAUUGAGCAUCA
B18: 39053079_39055272_849_3pUTR_ENSMUSG00000026753_ENSMUST00000028087|mouse|control|control (ssRNA)
RNA: GGGAGUUCUACAGUCCGACGAUCGAUGAGUUUUAAGUUGUUGAUAUGAACAAACUCAUUUGUGACUUUUGCUCCAAAUAGCCAACCUGCUCCUCUGGGACUGAUUGCCCAAGUGUCCACAUCUUCAGGAUCUGACCACACCAACAACAGAGGAUUGAGCAUCA
B19: chr3:169711627:169711628:+_ENSG00000008952_ENST00000337002|hu_hu|FALSE|FALSE (ssRNA)
RNA: GGGAGUUCUACAGUCCGACGAUCUAAAAACAUACCCUUACAUGGUCUUAAUUUUAUGAAUUUAAGUGUUGAGAAAUAUCUAAAUAAUAAGUAACAAUUAAAAUAAAAUGUUUUAUUUGUAAAUUAUGUACAGAAUACACUUUACAACAGAGGAUUGAGCAUCA
B20: chr17:65740002:65740003:+_ENSG00000130935_ENST00000581375|hu_hu|hu_hu_hu_mus_False|18_98 (ssRNA)
RNA: GGGAGUUCUACAGUCCGACGAUCAACAAAUCUUUCUCUGGAUGAAGAACAGGAAGAUUCAUAUUAAAAAAAAUAUAUAUCCAUCAAGUUAGGUGUGGUGGCCACACCUUUACUCCCCACUUCAAUUGAGGUGGAUCUCUGAGUCAACAGAGGAUUGAGCAUCA
B21: chr17:37088456:37088457:-_ENSMUSG00000036398_ENSMUST00000040402|mus_mus|FALSE|FALSE (ssRNA)
RNA: GGGAGUUCUACAGUCCGACGAUCGUAACCGUUGUCUCAGUGACGGUCUCACUUAUCCCGGCCCCUGUCUCCGCCAUGGCUAAAGCGAAAAGCGAGAAAGCGGGAUGAGACACCCUUUCCUUUUUCUGAGCCUCAGAGAUCUAACAACAGAGGAUUGAGCAUCA
B22: chr5:150025729:150025730:+_ENSMUSG00000041264_ENSMUST00000121416|mus_hu|FALSE|FALSE (ssRNA)
RNA: GGGAGUUCUACAGUCCGACGAUCCACAAAUGGCUUCUUCUGAUUUUCUUUCAGAGACUGAUUCUGUAAUGACUUAGAUGUUGUGGUUUGAGAAUCUGCUGUAGUUUCUUUUUUCUUCAAAUUAGAUACCUGAGAUGUGACACGCAACAGAGGAUUGAGCAUCA

The list shows a part of the results.

The target of this test is T1, UNK ZnF1-3. Description: nsRBNS (natural sequence RNA bind-n-seq); RBNS binding buffer (assumed for nsRBNS): 25 mM Tris pH 7.5, 150 mM KCl, 3 mM MgCl2, 0.01% Triton X-100, 500 ug/ml BSA, 20 U/ml SUPERase-In, 4 C; UNK is unkempt and MSI1 is Musashi-1; names of the RNAs are library labels; protein concentration not given here; high values mean tight binding.
B1 showed a binding signal of 1.49 enrichment R.

B2 returned a binding signal of 0.178 enrichment R.

Regarding B3, the binding signal worked out at 0.933 enrichment R.

Molecule B4 showed a binding signal of 2.62 enrichment R.

In turn, B5 yielded a binding signal of 1.16 enrichment R.

Molecule B6 returned a binding signal of 0.473 enrichment R.

B7 gave a binding signal of 0.865 enrichment R.

As to B8, the binding signal was 0.676 enrichment R.

Regarding B9, the binding signal stood at 1.01 enrichment R.

On to B10, for which the binding signal amounted to 0.863 enrichment R.

B11 gave a binding signal of 1.8 enrichment R.

Molecule B12 returned a binding signal of 0.928 enrichment R.

For B13, the binding signal was determined as 1.1 enrichment R.

For B14, the binding signal is 0.66 enrichment R.

B15: the binding signal stood at 0.918 enrichment R.

On to B16, for which the binding signal worked out at 0.971 enrichment R.

B17 returned a binding signal of 1.01 enrichment R.

Turning to B18, the binding signal is 1.11 enrichment R.

Regarding B19, the binding signal was 0.945 enrichment R.

B20 returned a binding signal of 1.3 enrichment R.

B21 came in with a binding signal of 0.924 enrichment R.

In turn, B22 gave a binding signal of 0.895 enrichment R.

These data come from PMC12136788.
